# Results taken from the supplement of paper PMC9135407.
# “And” between values parts separate entries of the source, which are not always exact repeats. Equal entries are not always repeated. Structures can show the parent of a compound that is named as a salt. Screen size: about 5,800 compounds; about 620 (11%) showed activity.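 The calls were made as follows: active = score above a cut-off or among the top three wells of a plate; in these data no inactive exceeds 0.85.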 The entries are a selection whose mix differs from that of the whole data set.
# System: primary human hepatic stellate cells (donor 1)
# Experiment: scaled lipid accumulation score (0 = DMSO-like, 1 = nortriptyline-like); higher = stronger HSC inactivation (lipid re-accumulation), active = hit call of the paper
# Settings: 48 h
# Method: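 Primary lipid accumulation screen in primary human hepatic stellate cell myofibroblasts (donor 1, passage 8) in 384-well plates. 100 nL of library compound was pin-transferred into 30 µL medium in duplicate, and cells were treated for 48 h. The 'Scaled' score combines distance from plate baseline, toxicity and reproducibility penalties, and is normalised to nortriptyline (positive) and DMSO (negative) controls on each plate. A hit is defined as scaled >0.85 or among the top 3 wells per plate.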
# [1] = library stock concentration: 3.33 mM
# [2] = library stock concentration: 10 mM
# [3] = library stock concentration: 400 uM
# [4] = library stock concentration: 2 mM
# [5] = library stock concentration: 80 uM
# [6] = library stock concentration: 1 mM
smiles,measurement,setting,value
CC(=O)N(CC(C)C(=O)O)c1c(I)cc(I)c(N)c1I (configuration not stated) [Iocetamic acid],scaled lipid accumulation score,,inactive: ≤ 0
O=C1CCc2cc(OCCCCc3nnnn3C3CCCCC3)ccc2N1 [Cilostazol],scaled lipid accumulation score,,inactive: ≤ 0
same,scaled lipid accumulation score,[1],inactive: ≤ 0
same,scaled lipid accumulation score,library stock concentration: 5.4 mM,inactive: ≤ 0
CCS(=O)(=O)CCn1c([N+](=O)[O-])cnc1C,scaled lipid accumulation score,[2],inactive: ≤ 0
CCS(=O)(=O)CCn1c([N+](=O)[O-])cnc1C [Tinidazole],scaled lipid accumulation score,,inactive: ≤ 0
same,scaled lipid accumulation score,[1],inactive: ≤ 0
same,scaled lipid accumulation score,library stock concentration: 8.1 mM,inactive: ≤ 0
same,scaled lipid accumulation score,[2],inactive: ≤ -0.001 and inactive: ≤ 0
N#C[C@@H]1C[C@@H]2C[C@@H]2N1C(=O)[C@@H](N)C12CC3CC(CC(O)(C3)C1)C2,scaled lipid accumulation score,[2],inactive: ≤ 0
N#C[C@@H]1C[C@@H]2C[C@@H]2N1C(=O)[C@@H](N)C12CC3CC(CC(O)(C3)C1)C2 [Saxagliptin],scaled lipid accumulation score,[1],inactive: ≤ 0
same,scaled lipid accumulation score,[2],inactive: ≤ 0
CCCCOc1cc(C(=O)NCCN(CC)CC)c2ccccc2n1 [Dibucaine HCl],scaled lipid accumulation score,[1],inactive: 0.253
CCCCOc1cc(C(=O)NCCN(CC)CC)c2ccccc2n1 [Dibucaine],scaled lipid accumulation score,,inactive: 0.284
CCCCOc1cc(C(=O)NCCN(CC)CC)c2ccccc2n1 [Dibucaine hydrochloride],scaled lipid accumulation score,library stock concentration: 5.3 mM,inactive: 0.662
same,scaled lipid accumulation score,[2],inactive: ≤ 0
O=P(O)(O)C(Cl)(Cl)P(=O)(O)O [Clodronic acid],scaled lipid accumulation score,[2],inactive: ≤ -0.07
Oc1ccc(-c2nc3cc(O)cc(Br)c3o2)cc1,scaled lipid accumulation score,[2],inactive: 0.005
Cc1coc2c1C(=O)C(=O)c1c-2ccc2c(C)cccc12 [Tanshinone I],scaled lipid accumulation score,[1],inactive: ≤ 0
same,scaled lipid accumulation score,[2],inactive: ≤ 0
CCC(=O)Nc1ccc2ncnc(Nc3cccc(Br)c3)c2c1,scaled lipid accumulation score,[1],inactive: ≤ 0
CCC1=C(C)CN(C(=O)NCCc2ccc(S(=O)(=O)NC(=O)N[C@H]3CC[C@H](C)CC3)cc2)C1=O,scaled lipid accumulation score,[2],inactive: ≤ 0
CCC1=C(C)CN(C(=O)NCCc2ccc(S(=O)(=O)NC(=O)N[C@H]3CC[C@H](C)CC3)cc2)C1=O [Glimepiride],scaled lipid accumulation score,,inactive: 0.026
same,scaled lipid accumulation score,[1],inactive: ≤ 0
same,scaled lipid accumulation score,[2],inactive: ≤ 0 and inactive: ≤ -0.001
Cc1ccccc1-n1c(Cn2nc(-c3cccc(O)c3)c3c(N)ncnc32)nc2cccc(C)c2c1=O,scaled lipid accumulation score,[3],inactive: 0.047
same,scaled lipid accumulation score,[4],inactive: ≤ -0.005
same,scaled lipid accumulation score,[1],inactive: ≤ 0
same,scaled lipid accumulation score,[2],inactive: ≤ 0 and inactive: ≤ -0.005
COc1cc(Nc2nc3ccccc3nc2NS(=O)(=O)c2ccc(NC(=O)c3ccc(C)c(OC)c3)cc2)cc(OC)c1,scaled lipid accumulation score,[1],inactive: ≤ 0
same,scaled lipid accumulation score,[2],inactive: 0.145
COc1cc(Nc2nc3ccccc3nc2NS(=O)(=O)c2ccc(NC(=O)c3ccc(C)c(OC)c3)cc2)cc(OC)c1 [pseudoXL765],scaled lipid accumulation score,[5],inactive: ≤ -0.009
same,scaled lipid accumulation score,[3],inactive: ≤ -0.009
same,scaled lipid accumulation score,[4],inactive: ≤ -0.009
same,scaled lipid accumulation score,[2],inactive: 0.161
C[C@@]12C[C@@]3(O)O[C@@H](O1)[C@]1(COC(=O)c4ccccc4)[C@H]3C[C@@]12O[C@@H]1O[C@H](CO)[C@@H](O)[C@H](O)[C@H]1O [Paeoniflorin],scaled lipid accumulation score,[1],inactive: ≤ 0
same,scaled lipid accumulation score,[2],inactive: ≤ 0
CCCCC[C@H](O)/C=C/[C@H]1[C@H](O)CC(=O)[C@@H]1C/C=C/CCCC(=O)Oc1ccc(NC(C)=O)cc1 [Prostaglandin E2 p-acetamidophenyl ester],scaled lipid accumulation score,[6],inactive: ≤ 0
CCCCn1c(=O)c2c(ncn2CC(C)=O)n(CCCC)c1=O [Denbufylline],scaled lipid accumulation score,library stock concentration: 6.2 mM,inactive: ≤ -0.006
Cn1cc(C2=C(c3ccc(Cl)cc3Cl)C(=O)NC2=O)c2ccccc21,scaled lipid accumulation score,[2],active: 1.03
COc1cc(OC)cc(-c2cc3cnc(N)nc3nc2NC(=O)NC(C)(C)C)c1,scaled lipid accumulation score,[2],inactive: ≤ 0
Cc1c[nH]c(=O)n(CCCN2CCN(c3ccccc3OCC(F)(F)F)CC2)c1=O,scaled lipid accumulation score,[2],inactive: 0.093
Nc1ncnc2c1c(-c1cnc3[nH]ccc3c1)nn2C1CCCC1,scaled lipid accumulation score,[1],inactive: ≤ 0
same,scaled lipid accumulation score,[2],inactive: 0.452
CCCCC/C=C\C/C=C\C/C=C\C/C=C\CCCC(=O)O[C@H](COCCCCCCCCCCCCCCCC)COP(=O)([O-])OCC[N+](C)(C)C [Arachidonoyl-PAF],scaled lipid accumulation score,[6],inactive: ≤ -0.021
COc1ccc2cc([C@@H](C)C(=O)O)ccc2c1 [(R) -Naproxen sodium salt],scaled lipid accumulation score,,inactive: ≤ 0
Nc1nc(=O)c2c([nH]1)NC[C@@H](CNc1ccc(C(=O)N[C@@H](CCC(=O)O)C(=O)O)cc1)N2C=O [Folinic acid calcium salt],scaled lipid accumulation score,,inactive: ≤ 0
CCCCc1oc2ccccc2c1C(=O)c1cc(I)c(OCCN(CC)CC)c(I)c1.Cl [Amiodarone HCl],scaled lipid accumulation score,[2],active: 1.27
CC(C)NCC(O)COc1cccc2ccccc12 (configuration not stated),scaled lipid accumulation score,[2],inactive: 0.847
CC(C)NCC(O)COc1cccc2ccccc12 (configuration not stated) [Propranolol HCl],scaled lipid accumulation score,[1],inactive: ≤ 0
same,scaled lipid accumulation score,[2],inactive: 0.555
CC(C)NCC(O)COc1cccc2ccccc12 (configuration not stated) [Propranolol],scaled lipid accumulation score,library stock concentration: 7.7 mM,inactive: 0.676
CC(C)NCC(O)COc1cccc2ccccc12 (configuration not stated) [Propranolol hydrochloride],scaled lipid accumulation score,,inactive: 0.378
same,scaled lipid accumulation score,[2],inactive: 0.74
Cc1nc(NC(=O)N2CCC[C@H]2C(N)=O)sc1-c1ccnc(C(C)(C)C(F)(F)F)c1,scaled lipid accumulation score,[5],inactive: 0.059
same,scaled lipid accumulation score,[3],inactive: ≤ -0.016
same,scaled lipid accumulation score,[4],inactive: 0.002
same,scaled lipid accumulation score,[1],inactive: ≤ 0
same,scaled lipid accumulation score,[2],inactive: ≤ 0 and inactive: ≤ -0.016
CC(C)=CCC[C@](C)(O)C1CC=C(C)CC1 (some centres not stated) [Bisabolol],scaled lipid accumulation score,[2],inactive: 0.049
CC(C)C[C@H](NC(=O)[C@H]1O[C@@H]1C(=O)O)C(=O)NCCCCN=C(N)N,scaled lipid accumulation score,[1],inactive: 0.177
same,scaled lipid accumulation score,[2],inactive: ≤ 0 and inactive: ≤ -0.07
O=C(/C=C\n1cnc(-c2cc(C(F)(F)F)cc(C(F)(F)F)c2)n1)NNc1cnccn1,scaled lipid accumulation score,[1],inactive: ≤ -0.009
same,scaled lipid accumulation score,[2],inactive: 0.384
CN(C)Cc1ccc(-c2nc3cccc4c3n2CCNC4=O)cc1,scaled lipid accumulation score,[1],inactive: 0.037
same,scaled lipid accumulation score,[2],inactive: 0.491
Cc1[nH]c(/C=C2\C(=O)Nc3ccc(S(=O)(=O)N(C)c4cccc(Cl)c4)cc32)c(C)c1C(=O)N1CCN(C)CC1,scaled lipid accumulation score,[5],inactive: 0.129
same,scaled lipid accumulation score,[3],inactive: 0.261
CCCCCCc1ccc(O)cc1O [Hexylresorcinol],scaled lipid accumulation score,[2],inactive: 0.055
N[C@@H](CC(=O)Nc1ccc(Oc2cc(F)c(F)cc2Br)cc1)C(=O)O,scaled lipid accumulation score,[2],inactive: ≤ -0.001
CC1(C)NC(=O)N(c2ccc([N+](=O)[O-])c(C(F)(F)F)c2)C1=O [Nilutamide],scaled lipid accumulation score,,inactive: ≤ 0
same,scaled lipid accumulation score,library stock concentration: 6.3 mM,inactive: ≤ 0
same,scaled lipid accumulation score,[2],inactive: ≤ -0.055 and inactive: ≤ -0.027 and inactive: ≤ 0
Oc1c2ccccc2c2c3c(cccc13)N=N2,scaled lipid accumulation score,[2],inactive: ≤ -0.006
same,scaled lipid accumulation score,library stock concentration: 22.7 mM,inactive: ≤ -0.006
COC(=O)[C@@H]1[C@H]2C[C@H]3c4[nH]c5ccccc5c4CCN3C[C@@H]2CC[C@@H]1O [Yohimbine HCl],scaled lipid accumulation score,[1],inactive: ≤ 0
same,scaled lipid accumulation score,[2],inactive: ≤ 0
COC(=O)[C@@H]1[C@H]2C[C@H]3c4[nH]c5ccccc5c4CCN3C[C@@H]2CC[C@@H]1O [Yohimbine hydrochloride],scaled lipid accumulation score,,inactive: ≤ 0
same,scaled lipid accumulation score,library stock concentration: 5.1 mM,inactive: ≤ 0
same,scaled lipid accumulation score,[2],inactive: 0.016 and inactive: 0.145 and inactive: 0.236
O=C1CCc2ccc(OCCCCN3CCN(c4cccc(Cl)c4Cl)CC3)cc2N1,scaled lipid accumulation score,[2],active: 0.964
C=C(C)[C@@H]1CC=C(C(=O)O)CC1 [(-)-Perillic acid],scaled lipid accumulation score,[2],inactive: ≤ 0
C=C(C)[C@@H]1CC=C(C(=O)O)CC1 [Perillic acid (-)],scaled lipid accumulation score,[2],inactive: ≤ 0
C[C@@H]1O[C@@H](O[C@H]2[C@H](Oc3cc(O)c(C(=O)CCc4ccc(O)cc4)c(O)c3)O[C@H](CO)[C@@H](O)[C@@H]2O)[C@H](O)[C@H](O)[C@H]1O [Naringin Dihydrochalcone],scaled lipid accumulation score,[1],inactive: ≤ 0
same,scaled lipid accumulation score,[2],inactive: 0.078
CCCCNC(=O)NS(=O)(=O)c1ccc(C)cc1 [Tolbutamide],scaled lipid accumulation score,,inactive: ≤ 0
same,scaled lipid accumulation score,[1],inactive: ≤ 0
same,scaled lipid accumulation score,[2],inactive: ≤ 0
same,scaled lipid accumulation score,library stock concentration: 18.5 mM,inactive: 0.073
CCCCNC(=O)NS(=O)(=O)c1ccc(C)cc1,scaled lipid accumulation score,[2],inactive: ≤ 0
"O=C(O)CCC/C=C\C[C@H]1C(=O)C=C[C@@H]1CC[C@@H](O)CCc1ccccc1 [17-phenyl trinor-13,14-dihydro Prostaglandin A2]",scaled lipid accumulation score,[6],inactive: ≤ 0
O=C(O)c1cc(-c2ccc(F)cc2F)ccc1O [Diflunisal],scaled lipid accumulation score,,inactive: ≤ 0
same,scaled lipid accumulation score,library stock concentration: 8 mM,inactive: ≤ 0 and inactive: ≤ -0.001
same,scaled lipid accumulation score,[2],inactive: ≤ 0
O=C(Nc1cccc(Nc2ncc(Br)c(NCCc3c[nH]cn3)n2)c1)N1CCCC1,scaled lipid accumulation score,[2],active: 0.978
CC(=O)[C@H]1CC[C@H]2[C@@H]3C[C@H](C)C4=CC(=O)CC[C@]4(C)[C@H]3[C@@H](O)C[C@]12C,scaled lipid accumulation score,[2],inactive: ≤ 0
CC(=O)[C@H]1CC[C@H]2[C@@H]3C[C@H](C)C4=CC(=O)CC[C@]4(C)[C@H]3[C@@H](O)C[C@]12C [Medrysone],scaled lipid accumulation score,,inactive: ≤ 0
same,scaled lipid accumulation score,library stock concentration: 5.8 mM,inactive: 0.001
same,scaled lipid accumulation score,[2],inactive: ≤ 0
O=C(Nc1c(Cl)cncc1Cl)c1ccc(OC(F)F)c(OCC2CC2)c1 [Roflumilast],scaled lipid accumulation score,[1],inactive: ≤ 0
same,scaled lipid accumulation score,[2],inactive: ≤ 0
CCOC(=O)OC(C)OC1=C(C(=O)Nc2ccccn2)N(C)S(=O)(=O)c2ccccc21 (configuration not stated),scaled lipid accumulation score,[2],inactive: ≤ 0
CCOC(=O)OC(C)OC1=C(C(=O)Nc2ccccn2)N(C)S(=O)(=O)c2ccccc21 (configuration not stated) [Ampiroxicam],scaled lipid accumulation score,[1],inactive: ≤ 0
same,scaled lipid accumulation score,library stock concentration: 4.5 mM,inactive: ≤ 0
same,scaled lipid accumulation score,[2],inactive: ≤ -0.001
"CCCS(=O)(=O)Nc1ccc(F)c(C(=O)c2c[nH]c3ncc(-c4ccc(Cl)cc4)cc23)c1F [Vemurafenib (PLX4032, RG7204)]",scaled lipid accumulation score,[1],inactive: ≤ 0
same,scaled lipid accumulation score,[2],inactive: ≤ 0
